Results on 94 molecules are retold here after PubChem BioAssay AID1508642 (National Center for Advancing Translational Sciences (NCATS), 2021).

Among all 43,000 compounds or so, about 200 (0.47%) were called active. Inconclusive results (about 12%) are left out. The call rests on the fitted dose curve; in most records, active means well fitted cell-killing curve with a large enough effect; inconclusive means small, poorly fitted or top-dose-only effect, or effect the other way; inactive means flat fitted curve, though single readings scatter. The list shows a part of the results.
On the % scale 0 is the no-effect control and ±100 the full control effect.

The nature of the test: Cell viability qHTS assay in S16 Pmp22-F2sN cells. Further: nearly all actives have a fitted effect of over 65% in size. The following applies: S16 Pmp22-F2sN Schwann cells (luciferase reporters placed in the Pmp22 gene) viability, CellTiter-Glo, 24 h; series mostly up to 57.5 µM; activity change, negative = cytotoxicity: at the top concentration. A digest of the protocol:
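CellTiter-Glo counter-screen, qHTS, 1536-well. Cells: S16(c9) Pmp22-F2sN, 500-1,000/well in DMEM + 10% FBS. Cpd 23 nL pin transfer, 24 h, 37C/5% CO2. Read: luminescence, CCD imager.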
Consider `COc1ccc(OC)c(NC(=O)CSC2=Nc3ccccc3C3=NC(CCC(=O)NCc4ccco4)C(=O)N23)c1` (centres undefined), for which the “activity change, negative = cytotoxicity” value was inactive: 8.88%. Take `CCC(=O)Nc1nnc(S(=O)(=O)N(C)Cc2ccc(Cl)cc2)s1`: the “activity change, negative = cytotoxicity” value is inactive: 11.8%. On to `CCOC(=O)c1ccc(NC(=O)CN(c2ccc(C)cc2)S(=O)(=O)c2ccc(OC)cc2)cc1`, for which the “activity change, negative = cytotoxicity” value was inactive: -1.63%. Next, `CCC(Sc1nc2cc(OC)c(OC)cc2c(=O)n1Cc1ccc(Cl)cc1)C(=O)NCCOC` (centres undefined): inactive: 12.3%; `Cc1cc(NC(=O)c2cccnc2)cc(-c2nc3cc(Cl)ccc3o2)c1O`: inactive: 0.582%; `CCOc1ccc(-c2nc3c(c(SCC(=O)N4CCCCC4)n2)Cc2cc(C)ccc2O3)cc1`: inactive: 6.61%. Next, `COc1ccc(N2CCN(CCCNC(=O)Nc3ccccc3Cl)CC2)cc1`: inactive: -6.55%. Next, `COc1ccc(CCNC(=O)CN(c2ccc(C)cc2)S(=O)(=O)c2ccc(OC)cc2)cc1`: inactive: 14.5%. Regarding `N#Cc1ccccc1CSc1nnc(-c2ccccc2)o1`, the “activity change, negative = cytotoxicity” value is inactive: 13%. Next, `COc1cc(C(=O)Nc2ccc(OCc3cc(=O)n4ccc(C)cc4n3)cc2)cc(OC)c1OC`: inactive: 0.192%; `COc1cc(Nc2ncnc3onc(-c4ccc(Cl)cc4)c23)cc(OC)c1`: inactive: -2.01%; `Cc1ccc(-n2c(=O)c3c(C)c(C)sc3n(CC(=O)c3ccc(Cl)cc3)c2=O)cc1C`: inactive: 7.72%.

For `Cc1cccc(N2CCN(S(=O)(=O)c3c(C)[nH]c(=O)[nH]c3=O)CC2)c1C`, the “activity change, negative = cytotoxicity” value was inactive: 9.17%. As for `O=C(Cn1c(=O)n(Cc2ccc(F)cc2)c(=O)c2sc3ccccc3c21)NCc1ccccc1Cl`, the “activity change, negative = cytotoxicity” value was inactive: -1.65%. Regarding `Cc1ccn2c(Nc3ccc4c(c3)OCO4)c(-c3ccco3)nc2c1`, the “activity change, negative = cytotoxicity” value is inactive: -0.316%.

Turning to `N#Cc1c(C(F)(F)F)cc(-c2cccs2)nc1SCC(=O)Nc1ccc(Cl)cc1`, the “activity change, negative = cytotoxicity” value was inactive: -4.56%. Then `Cc1ccc(CCNc2nc3ccccc3c3nc(-c4ccccc4)nn23)cc1`, with inactive: -9.76%. Next, `Cc1oc(-c2ccc(Cl)cc2)nc1CSc1nnc(C)n2c1cc1sccc12`: inactive: 12.4%; `O=C1CN(C(=O)c2ccccc2)C(c2ccc(F)cc2)c2cc(Br)ccc2N1` (centres undefined): inactive: -0.879%. Then `CCc1cccc(C)c1NC(=O)Nc1csc2c1CCCC2`, with inactive: -1.69%; and `COc1ccc2sc(N(Cc3cccnc3)C(=O)c3ccco3)nc2c1`, with inactive: 9.33%; and `Cc1ccc(C)c(NC(=O)CSc2nncn3c2cc2sccc23)c1`, with inactive: 22%. In the case of `CCOC(=O)c1ccc(N2C(=O)c3[nH]nc(-c4ccc(OC)cc4)c3C2c2ccc(C)cc2)cc1` (centres undefined), the “activity change, negative = cytotoxicity” value was inactive: -20.1%. Next, `CCCNC(=O)C1CCN(c2cc(C)nc3c(-c4ccc(OC)c(OC)c4)c(C)nn23)CC1`: inactive: 13.1%; `COc1ccc(CN2C(=O)N(c3ccc(F)cc3)C(=O)C2CC(=O)Nc2ccccc2)cc1` (centres undefined): inactive: 3.19%.

For `CCOc1ccc(N2CC(c3nc4ccccc4n3CCC3CCCCC3)CC2=O)cc1` (centres undefined), the “activity change, negative = cytotoxicity” value is inactive: -28.9%. Next, `COC(=O)c1cc(NC(=O)Cn2ncc3c2-c2ccccc2OC3)cc(C(=O)OC)c1`: inactive: 10.1%; `COc1ccc(-c2noc(-c3ccc(NC4CCCCC4)c([N+](=O)[O-])c3)n2)cc1OC`: inactive: 15.8%; `O=C(NCCc1c[nH]c2ccccc12)Nc1ccccc1C(F)(F)F`: inactive: -3.76%.

Take `COc1ccc(NC(=O)CSc2nc3c(c(=O)[nH]2)CN(Cc2ccccc2)CC3)cc1Cl`: the “activity change, negative = cytotoxicity” value was inactive: -11.1%. Then `CCc1ccc(NC(=O)Cn2c(=O)n(Cc3ccccc3)c(=O)c3oc4ccccc4c32)cc1`, with inactive: 5.37%; and `COC(=O)c1ccccc1NC(=O)CN1C(=O)COc2ccccc21`, with inactive: 9.67%; and `Cc1ncc(CO)c2c1Oc1nc(-c3ccccc3F)nc(SCC(=O)N3CCCCC3)c1C2`, with inactive: -13.8%. Next, `CCOc1cc(C(=O)Nc2c(NC)c3ccccc3oc2=O)cc(OCC)c1OCC`: inactive: 8.79%; `CCc1ccc(NC(=O)c2cnn(-c3c(C)cccc3C)c2C2CCNCC2)cc1`: inactive: -28.2%; `Cc1ccc(S(=O)(=O)c2cn(C)c3cc(N4CCCC4)c(F)cc3c2=O)c(C)c1`: inactive: -9.96%. Next, `Cc1ccc(N2CCN(C(=O)CCc3c(C)nc4ncnn4c3C)CC2)c(C)c1`: inactive: -0.0383%; `Cc1cc(C)c(C#N)c(SCC(=O)Nc2ccccc2C#N)n1`: inactive: 13.4%. Turning to `Cc1ccc(C)c(CN2C(=O)c3ccccc3Sc3ccc(C(=O)NC4CCCC4)cc32)c1`, the “activity change, negative = cytotoxicity” value was inactive: -13%.

For the molecule `Cc1ccc(-n2ncc(C(=O)N3CCc4ccccc4C3)c2C2CCN(C(=O)OC(C)(C)C)CC2)cc1C`, the “activity change, negative = cytotoxicity” value was inactive: -1.32%.

For `CCn1cc(C(=O)NCCc2ccc(OC)c(OC)c2)c(=O)c2cc(S(=O)(=O)N3CCc4ccccc4C3)ccc21`, the “activity change, negative = cytotoxicity” value was inactive: -20.4%. Next, `COc1cccc(CNC(=O)CSc2ncc(S(=O)(=O)c3ccc(C)c(Cl)c3)c(=O)[nH]2)c1`: inactive: 0.0837%. For `CC(C)(C)C(=O)OCc1cc(=O)n2nc(C3CCCCC3)sc2n1`, the “activity change, negative = cytotoxicity” value is inactive: 19.1%.

On to `COc1ccc(-c2nc(CN3CCC(C(=O)NCCN(CC(C)C)CC(C)C)CC3)c(C)o2)cc1OC`, for which the “activity change, negative = cytotoxicity” value is inactive: -2.77%. Next, `COc1ccccc1-c1noc(-c2ccc(NCCc3ccccc3)c([N+](=O)[O-])c2)n1`: inactive: -2.63%; `CNC(=O)c1ccc(NC(=O)c2nsc3ccccc23)cc1`: inactive: -24.2%; `CCOC(=O)c1ccc(NC(=O)Cn2nnc(-c3ccc(C(F)(F)F)cc3)n2)cc1`: inactive: 20.1%. For the molecule `COc1ccc2c(c1)c(N1CCCC1=O)c(C(=O)Nc1ccc(Cl)cc1C)n2C`, the “activity change, negative = cytotoxicity” value is inactive: -10.2%. Then `CCN1Cc2cccc(C(=O)Nc3ccc(F)cc3)c2C1=O`, with inactive: 9.47%; and `CCOC(=O)c1ccc(OCC2c3cc(OC)c(OC)cc3CCN2C(=O)Cc2ccc(OC)c(OC)c2)cc1` (centres undefined), with inactive: -3.67%; and `CCCCNC(=O)c1ccc(-c2nc(CS(=O)(=O)c3ccc(C)cc3)c(C)o2)cc1`, with inactive: -3.5%. Then `Cc1ccc(N2CC(c3nnc(Cc4ccc(F)cc4Cl)o3)CC2=O)cc1` (centres undefined), with inactive: 4.42%; and `COC(=O)CNC(c1ccccc1)c1cc(Br)ccc1NC(=O)c1cc(OC)c(OC)c(OC)c1` (centres undefined), with inactive: -7.64%; and `CC1=C(c2ccc(Cl)cc2)S(=O)(=O)N=C1N1CCN(c2cccc(C)c2)C(C)C1` (centres undefined), with inactive: 4.52%. Next, `CCOC(=O)c1c(-c2ccc(C)cc2)csc1NC(=O)c1ccc(C(C)(C)C)cc1`: inactive: 14.1%. As for `CCc1ccc(NC(=O)CCS(=O)(=O)c2ccc3c(c2)oc(=O)n3C)cc1`, the “activity change, negative = cytotoxicity” value is inactive: 5.73%.

With `COC(=O)c1ccc(OC)c(Cn2c(=O)n(-c3cccc(Cl)c3)c(=O)c3c2c2cc(C)ccc2n3C)c1`, the “activity change, negative = cytotoxicity” value is inactive: 14%. Next, `COc1ccc(CCNC(=O)CCCn2c(=O)c3ccccc3n(CC(=O)Nc3c(C)cc(C)cc3C)c2=O)cc1OC`: inactive: 13.9%; `CCOc1ccc(NC(=O)Cn2cnc3nc4c(cc3c2=O)CCCC4)cc1`: inactive: -8.39%. Next, `COc1ccc(-c2cc(C)no2)cc1S(=O)(=O)Nc1cccc(C(F)(F)F)c1`: inactive: -5.87%. Regarding `Cc1c(CCNC(=O)c2ccc(C(F)(F)F)cc2)sc2nc(-c3ccc(F)cc3)nn12`, the “activity change, negative = cytotoxicity” value is inactive: 2.42%.

Take `COc1ccc(CCNC(=O)Cn2c(C)c3cnn(-c4ccccc4)c(=O)c3c2C)cc1OC`: the “activity change, negative = cytotoxicity” value was inactive: 1.14%. Then `CC1=C(C(N)=O)C(c2ccc(C(C)C)cc2)n2nc(SCc3ccccc3F)nc2N1` (centres undefined), with inactive: -0.231%. Next, `CCn1cc2nc(SCc3cccc(C(F)(F)F)c3)n(CCc3ccccc3)c(=O)c2n1`: inactive: 29.4%; `Fc1ccc(-n2ncc3c(Nc4ccc(Oc5ccc(Cl)cc5)cc4)ncnc32)cc1`: inactive: -0.0523%; `COc1ccc(-c2[nH]c(-c3ccc(F)cc3)nc2SCC(=O)Nc2ccc(OC)c(OC)c2)cc1`: inactive: -10.9%. Then `Cc1ccccc1C(=O)Nc1ccccc1C(=O)OCc1cc(=O)n2nc(C3CC3)sc2n1`, with inactive: 8.9%.

Take `Cc1ccc(NC(=O)CN2C(=O)C(c3ccccc3)=NC2(C)C)cc1C`: the “activity change, negative = cytotoxicity” value is inactive: -1.91%. `CCc1ccc(-n2c(=O)c3cccnc3n2CC(=O)N(CC)c2cccc(C)c2)cc1`: the “activity change, negative = cytotoxicity” value was inactive: 0.0649%. Next, `Cc1ccc(-n2ncc3c(NCCc4ccccc4)ncnc32)cc1`: inactive: -1.44%; `Cc1cc2oc(C(=O)N(Cc3ccccc3)C3CCS(=O)(=O)C3)cc(=O)c2cc1C` (centres undefined): inactive: -25.1%.

In the case of `CCOc1ccc(S(=O)(=O)n2nc(C)c(S(=O)(=O)N3CCCCCC3)c2C)cc1`, the “activity change, negative = cytotoxicity” value was inactive: 1.15%. Next, `CN1CCN(c2ncc3c(n2)CCN(Cc2ccccc2Cl)C3)CC1`: inactive: 2.83%; `Cc1c2cnn(-c3ccccc3)c(=O)c2c(C)n1CC(=O)NCc1ccc(Cl)cc1`: inactive: 11.4%. Next, `CCc1ccc(NC(=O)CSc2nnc(-c3nonc3NC(C)=O)n2-c2ccccc2)cc1`: inactive: -10.9%; `COc1ccc2c(C)cc(SCC(=O)Nc3nsc(-c4ccc(C(C)(C)C)cc4)n3)nc2c1`: inactive: 2.99%.

For `COc1cccc(Cn2c(SCc3ccc(C(=O)N4CCC(C)CC4)cc3)nc3ccncc32)c1`, the “activity change, negative = cytotoxicity” value is inactive: -15.6%. Next, `CCC(Cc1ccccc1)NC(=O)c1csc2c1CCCCC2` (centres undefined): inactive: 1.63%. `COc1ccccc1NC(=O)C1=C(C)Nc2ncnn2C1c1ccc[nH]1` (centres undefined): the “activity change, negative = cytotoxicity” value is inactive: 4.55%.

Take `CCN(CC)C(=O)Cn1c(SCC(=O)Nc2ccc(C)c(C)c2)nc2ccccc21`: the “activity change, negative = cytotoxicity” value was inactive: 6.19%. Next, `COc1ccc(CNC(=O)CN2CCSc3ccccc32)c(OC)c1`: inactive: 15.8%; `CCN(c1ccccc1)S(=O)(=O)c1cc(C(=O)Nc2ccc(Br)cc2)ccc1F`: inactive: -17%. Next, `CCOC(=O)c1c(Nc2ccccc2)nnc(-c2ccccc2)c1-c1ccccc1`: inactive: -13.2%; `O=C(Cn1c(=O)oc2ccccc21)NCc1ccc(Cl)cc1`: inactive: -6.54%. Then `COc1ccc2oc(-c3ccc(C)c(NC(=O)c4ccc(N5CCCCC5)c([N+](=O)[O-])c4)c3)nc2c1`, with inactive: 9.49%; and `CCc1ccc(NC(=O)CSc2nc3ncccc3[nH]2)cc1`, with inactive: 11.1%. In the case of `CCOc1ccc(/C=C/C(=O)Nc2sc3c(c2C(=O)OC)CCC3)cc1`, the “activity change, negative = cytotoxicity” value was inactive: -26.4%.

As for `CCCOc1ccccc1C1Oc2nc(SC)nnc2-c2ccccc2N1C(C)=O` (centres undefined), the “activity change, negative = cytotoxicity” value was inactive: -0.892%. For the molecule `COCCNC(=O)Cn1ncc2c(C)n(Cc3ccc(C)cc3)c(C)c2c1=O`, the “activity change, negative = cytotoxicity” value is inactive: 7.15%. Then `CCOC(=O)c1ccc(-c2ccc(/C=C(\C#N)C(=O)Nc3ccc(C)cc3OC)o2)cc1`, with inactive: -4.92%; and `CCCNC(=O)CN1CCN(c2ncc(NC(=O)c3ccc(Cl)cc3)cc2C(=O)O)CC1`, with inactive: -2.53%; and `CSc1ccc(C2c3c(oc4ccccc4c3=O)C(=O)N2CCCN2CCOCC2)cc1` (centres undefined), with inactive: 10.5%.

Consider `CC(C)(C)C(=O)OC1=CN(Cc2ccccc2)S(=O)(=O)c2ccccc21`, for which the “activity change, negative = cytotoxicity” value is inactive: 3.16%.

Regarding `Cc1ccc(C)c(CNC(=O)c2cnc3sc(N4CCCC4)nn3c2=O)c1`, the “activity change, negative = cytotoxicity” value is inactive: 1.63%.
